Among the data in the GPR68 mutational scans of Howard et al. (2025) are cAMP reporter score and surface expression score values, retold here.

To fix the notation:
B1: GPR68, Q15743 (parent)
chain: MGNITADNSSMSCTIDHTIHQTLAPVVYVTVLVVGFPANCLSLYFGYLQIKARNELGVYLCNLTVADLFYICSLPFWLQYVLQHDNWSHGDLSCQVCGILLYENIYISVGFLCCISVDRYLAVAHPFRFHQFRTLKAAVGVSVVIWAKELLTSIYFLMHEEVIEDENQHRVCFEHYPIQAWQRAINYYRFLVGFLFPICLLLASYQGILRAVRRSHGTQKSRKDQIQRLVLSTVVIFLACFLPYHVLLLVRSVWEASCDFAKGVFNAYHFSLLLTSFNCVADPVLYCFVSETTHRDLARLRGACLAFLTCSRTGRAREAYPLGAPEASGKSGAQGEEPELLTKLHPAFQTPNSPGSGGFPTGRLA

The variants in data set [1] derive from B1. In words: cAMP reporter score (Enrich2 score, wild type = 0); higher = more signal; HEK293T, FACS bins.
In data set [2] the parent is B1. Nature of the data set: surface expression score (Enrich2 score, wild type = 0); higher = more signal; HEK293T, FACS bins.

The least precise scores are not listed. The source holds two more conditions with little spread; they are left out. Read del as a deletion of the residues named and ins as an insertion between two positions. For some of these results: How much ogerin was present is not stated here.

As for L100del, the cAMP reporter score in data set [1] (pH 5.5) is -1.74; in data set [1] (pH 6), -0.81; in data set [1] (pH 6, modulator: ogerin), -1.4; in data set [1] (pH 6.5, modulator: ogerin), -1.43. Further, the surface expression score in data set [2] was -2.51.
As for H89_G90insGSG, the cAMP reporter score in data set [1] (pH 5.5) was -0.769; in data set [1] (pH 6) it was -1.69; in data set [1] (pH 6, modulator: ogerin), -1.47; in data set [1] (pH 6.5, modulator: ogerin) it was -0.754. For the same variant, the surface expression score in data set [2] was -0.4.
Consider G98_I99del, for which the cAMP reporter score is -1.03 in data set [1] (pH 5.5); -0.828 in data set [1] (pH 6); -1.96 in data set [1] (pH 6, modulator: ogerin); -0.762 in data set [1] (pH 6.5, modulator: ogerin). For the same variant, the surface expression score in data set [2] is -2.32.
In the case of H89_D91del, the cAMP reporter score in data set [1] (pH 5.5) was -1.09; in data set [1] (pH 6) it was -1.08; in data set [1] (pH 6, modulator: ogerin), -0.914; in data set [1] (pH 6.5, modulator: ogerin), -0.176. Moreover, the surface expression score in data set [2] was -0.565.
Take G98_I99insGS: the cAMP reporter score in data set [1] (pH 5.5) was -1.28; in data set [1] (pH 6, modulator: ogerin), -1.04; in data set [1] (pH 6.5, modulator: ogerin), -1.68. The surface expression score in data set [2] was -1.17.
Consider D91_L92insG, for which the cAMP reporter score is -1.86 in data set [1] (pH 5.5); -0.438 in data set [1] (pH 6); -1.31 in data set [1] (pH 6, modulator: ogerin); -1.05 in data set [1] (pH 6.5, modulator: ogerin). Also, the surface expression score in data set [2] was -1.31.
With V96del, the cAMP reporter score in data set [1] (pH 5.5) is -0.575; in data set [1] (pH 6) it was -1.86; in data set [1] (pH 6, modulator: ogerin) it was -1.99; in data set [1] (pH 6.5, modulator: ogerin), -0.827. For the same variant, the surface expression score in data set [2] is -2.77.
With G98_I99insG, the cAMP reporter score in data set [1] (pH 5.5) is -0.189; in data set [1] (pH 6), -2.73; in data set [1] (pH 6, modulator: ogerin) it was -1.4; in data set [1] (pH 6.5, modulator: ogerin), -0.711. For the same variant, the surface expression score in data set [2] was -1.91.
In the case of S93T, the cAMP reporter score is -0.604 in data set [1] (pH 5.5); -0.059 in data set [1] (pH 6); 0.487 in data set [1] (pH 6, modulator: ogerin); -1.1 in data set [1] (pH 6.5, modulator: ogerin). Moreover, the surface expression score in data set [2] was -0.268.
For S93A, the cAMP reporter score in data set [1] (pH 5.5) was -0.453; in data set [1] (pH 6), 1.66; in data set [1] (pH 6, modulator: ogerin), 0.253; in data set [1] (pH 6.5, modulator: ogerin) it was 2.99. In data set [2], the surface expression score is -1.76.
Take S93V: the cAMP reporter score was 0.513 in data set [1] (pH 5.5); -0.014 in data set [1] (pH 6); 1.03 in data set [1] (pH 6, modulator: ogerin); 0.202 in data set [1] (pH 6.5, modulator: ogerin). The surface expression score in data set [2] is 0.948.
On the same counts, the results for S93N are -1.7, 0.044, -0.996, -2.45 and -2.05.
Consider S93Q, for which the cAMP reporter score in data set [1] (pH 5.5) is -1.22; in data set [1] (pH 6), -0.918; in data set [1] (pH 6, modulator: ogerin), -1.19; in data set [1] (pH 6.5, modulator: ogerin), -1.75. Besides, in data set [2], the surface expression score turned out to be 0.083.
For the variant S93F, the figures for the cAMP reporter score in data set [1] (pH 5.5) and in data set [1] (pH 6) were 1.26 and 1.38, respectively. Besides, in data set [2], the surface expression score is -0.129.
For S93E, the cAMP reporter score is -0.493 in data set [1] (pH 5.5); -0.818 in data set [1] (pH 6); -0.223 in data set [1] (pH 6, modulator: ogerin); -1.1 in data set [1] (pH 6.5, modulator: ogerin). In addition, in data set [2], the surface expression score is -0.64.
Turning to S93Y, the cAMP reporter score in data set [1] (pH 5.5) was -0.269; in data set [1] (pH 6.5, modulator: ogerin), -0.431.
For S93P, the cAMP reporter score in data set [1] (pH 5.5) was -0.653; in data set [1] (pH 6), -0.857; in data set [1] (pH 6, modulator: ogerin), -1.71; in data set [1] (pH 6.5, modulator: ogerin) it was -1.41. Further, in data set [2], the surface expression score was -0.415.
For the variant S93C, the cAMP reporter score in data set [1] (pH 5.5) was -0.2; in data set [1] (pH 6), -0.726; in data set [1] (pH 6, modulator: ogerin), -0.492; in data set [1] (pH 6.5, modulator: ogerin), -0.85. For the same variant, the surface expression score in data set [2] is -0.156.
For S93R, the cAMP reporter score in data set [1] (pH 5.5) was -1.08; in data set [1] (pH 6), -0.498; in data set [1] (pH 6, modulator: ogerin), -0.975; in data set [1] (pH 6.5, modulator: ogerin), -0.779. Further, the surface expression score in data set [2] was 0.948.
Take S93W: the cAMP reporter score came to 0.181 in data set [1] (pH 5.5); 0.475 in data set [1] (pH 6, modulator: ogerin); 2.38 in data set [1] (pH 6.5, modulator: ogerin).
With S93K, the cAMP reporter score is -1.14 in data set [1] (pH 5.5); -0.371 in data set [1] (pH 6); -0.799 in data set [1] (pH 6, modulator: ogerin); -0.771 in data set [1] (pH 6.5, modulator: ogerin). Further, the surface expression score in data set [2] amounted to 0.489.
With S93H, the cAMP reporter score in data set [1] (pH 5.5) is -1.09; in data set [1] (pH 6), -0.51; in data set [1] (pH 6, modulator: ogerin) it was -0.998; in data set [1] (pH 6.5, modulator: ogerin), -0.894. In data set [2], the surface expression score is -1.6.
Consider S93G, for which the cAMP reporter score in data set [1] (pH 5.5) is 0.141; in data set [1] (pH 6, modulator: ogerin), -0.654. Also, the surface expression score in data set [2] was -1.78.
As for S93I, the cAMP reporter score is -0.524 in data set [1] (pH 5.5); -0.974 in data set [1] (pH 6); -0.836 in data set [1] (pH 6, modulator: ogerin); -0.456 in data set [1] (pH 6.5, modulator: ogerin). For the same variant, the surface expression score in data set [2] was 0.177.
For the variant S88_H89insGSG, the cAMP reporter score in data set [1] (pH 5.5) is -1.1; in data set [1] (pH 6), 0.114; in data set [1] (pH 6, modulator: ogerin) it was -0.612; in data set [1] (pH 6.5, modulator: ogerin), -1.78. The surface expression score in data set [2] was 0.082.
On the same counts, the results for S93_Q95del are -0.512, -0.246, -0.447, -0.653 and -0.539.
For the variant S88_G90del, the cAMP reporter score in data set [1] (pH 5.5) is -1.34; in data set [1] (pH 6), -0.506; in data set [1] (pH 6, modulator: ogerin) it was -1.31; in data set [1] (pH 6.5, modulator: ogerin), -0.664. The surface expression score in data set [2] was -1.08.
Consider L92_S93insGSG, for which the cAMP reporter score in data set [1] (pH 5.5) is -2.06; in data set [1] (pH 6), -0.042; in data set [1] (pH 6, modulator: ogerin) it was -3.31. In data set [2], the surface expression score was -0.993.
On to S88_H89del, for which the cAMP reporter score in data set [1] (pH 5.5) is -1.72; in data set [1] (pH 6) it was -1.12; in data set [1] (pH 6, modulator: ogerin) it was -1.57; in data set [1] (pH 6.5, modulator: ogerin), -1.7. The surface expression score in data set [2] is -0.419.
On to E103del, for which the cAMP reporter score was -0.39 in data set [1] (pH 5.5); 0.214 in data set [1] (pH 6); -0.448 in data set [1] (pH 6, modulator: ogerin); -0.643 in data set [1] (pH 6.5, modulator: ogerin). Moreover, in data set [2], the surface expression score was -2.19.
With L92_S93insGS, the cAMP reporter score in data set [1] (pH 5.5) was -2.23; in data set [1] (pH 6) it was -1.3; in data set [1] (pH 6, modulator: ogerin), -1.96; in data set [1] (pH 6.5, modulator: ogerin), -0.971. Also, the surface expression score in data set [2] was -2.18.
For V96_C97insG, the cAMP reporter score was 0.039 in data set [1] (pH 5.5); -1.75 in data set [1] (pH 6, modulator: ogerin); -0.365 in data set [1] (pH 6.5, modulator: ogerin). Besides, the surface expression score in data set [2] is -1.86.
